According to PubChem BioAssay AID485367 (National Center for Advancing Translational Sciences (NCATS), 2010):
Screen size: about 330,000 compounds; about 560 (0.17%) were called active. The inconclusive results got no clear call from the source; some entries with a clear call stand among them for comparison. Calls follow the shape of the dose curve; as a rule, active = well fitted inhibition curve with a large enough effect; inconclusive = small, poorly fitted or top-dose-only effect, or effect the other way; inactive = flat fitted curve, though single readings scatter. Potencies of inconclusive entries are left out as doubtful fits.

molecular target: ATP-dependent 6-phosphofructokinase (Trypanosoma brucei brucei) (UniProt O15648); assay: qHTS Assay to Find Inhibitors of T. brucei phosphofructokinase; also: nearly all actives have a fitted effect of over 60% in size;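 as to activity, negative = inhibition: 0% = uninhibited 1x PFK enzyme wells and -100% = no-enzyme wells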; conditions: T. brucei PFK, ADP-Glo luminescence; activity, negative = inhibition: at 57.5 µM (top of the series)
In short: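 In TEA buffer at pH 8.0 with 5 mM MgCl2, enzyme (1.25 nM) converted F6P (0.5 mM) and ATP (0.1 mM) for 45 min at room temperature. ADP product was read by luciferase luminescence.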
Potency is read from the fitted curve at half-maximal effect; tags tell the direction and shape of the fitted curve.

Sequence of UniProt O15648 (O15648 whole entry, looked up): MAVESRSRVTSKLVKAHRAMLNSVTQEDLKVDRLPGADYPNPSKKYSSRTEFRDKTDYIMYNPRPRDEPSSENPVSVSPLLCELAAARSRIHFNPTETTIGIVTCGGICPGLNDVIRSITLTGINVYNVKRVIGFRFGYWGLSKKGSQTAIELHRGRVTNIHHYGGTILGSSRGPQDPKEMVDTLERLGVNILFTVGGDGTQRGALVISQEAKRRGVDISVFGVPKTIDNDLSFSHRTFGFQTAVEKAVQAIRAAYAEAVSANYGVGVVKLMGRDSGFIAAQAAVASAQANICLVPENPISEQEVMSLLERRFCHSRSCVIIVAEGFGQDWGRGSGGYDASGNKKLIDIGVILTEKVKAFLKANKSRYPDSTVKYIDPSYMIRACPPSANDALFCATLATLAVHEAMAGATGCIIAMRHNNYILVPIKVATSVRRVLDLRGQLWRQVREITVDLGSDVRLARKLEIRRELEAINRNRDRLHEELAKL

SMILES | activity, negative = inhibition | Potency
O=C(NC1CCCC1)c1cccc(Oc2ccccc2)c1 | inactive: 0.575% | –
C#CCOCCOCCOCCNc1nc(N2CCN(C(=O)CCCCCCCCCCNC(=O)[C@H](CCCN=C(N)N)n3cc(C[C@@H](C)CC)nn3)CC2)nc(N2CCN(C(=O)CCCCCCCCCCNC(=O)[C@@H]([C@H](C)CC)n3cc(CCCCCN)nn3)CC2)n1 | – | inconclusive [activator, single point]
Cc1cc(NS(=O)(=O)c2ccc(NC(=O)COc3ccc(Cl)c(C)c3)cc2)no1 | – | active: 12 µM
Cc1ccc(S(=O)(=O)N2CCCN(C(C)c3nc4ccccc4c(=O)[nH]3)CC2)cc1 (centres undefined) | inactive: 8.97% | –
Cc1ccc(C(c2c(C)n(C)n(-c3ccccc3)c2=O)c2c(C)n(C)n(-c3ccccc3)c2=O)s1 | inactive: -23.1% | –
COc1ccccc1NC(=O)c1oc2ccccc2c1NC(=O)C1CC1 | inactive: 0.345% | –
CN(C)CC(=O)Nc1ccc(Oc2ccc(Cl)cc2)cc1 | inactive: 6.39% | –
O=C(COC(=O)c1cc(-c2cccs2)nc2ccccc12)NCc1ccco1 | – | inconclusive [falling, partial curve]
CCCCN(CC)CCNC(=O)c1nn(-c2ccc(OC)cc2)c(=O)c2c1c1ccccc1n2C | inactive: 0.94% | –
O=C(NCCC1=CCCCC1)c1ccc([N+](=O)[O-])cc1 | inactive: 0.187% | –
O=C(NCCN1CCN(Cc2ccccc2)CC1)C1c2ccccc2C(=O)N2CCc3ccccc3C12 (centres undefined) | inactive: -0.619% | –
COc1cc(/C=N/NC(=O)C2COc3ccccc3O2)ccc1O (centres undefined) | inactive: -2.97% | –
Cc1cc(NC(=O)CN2CC3CC(C2)c2cccc(=O)n2C3)nc2c1c(=O)oc1ccccc12 (centres undefined) | – | inconclusive [falling, single point]
O=C(/C=C/c1ccc(O)c(O)c1)OC(Cc1ccc(O)c(O)c1)C(=O)O (centres undefined) | – | active: 2.69 µM
CCN1C(=O)N/C(=C/c2ccc(C)o2)C1=O | – | active: 13.5 µM
O=C(CSc1nnc(-c2ccc(S(=O)(=O)N3CCCC3)cc2)o1)NCc1ccco1 | – | inconclusive [falling, single point]
O=C(NC1CCS(=O)(=O)C1)/C(=C/c1ccco1)NC(=O)c1ccccc1 (centres undefined) | – | inconclusive [falling, partial curve, poor fit]
Cc1ccc(NC(=O)c2ccc(Cl)c(N3C(=O)C=CC3=O)c2)cc1 | – | inconclusive [falling, partial curve]
COc1ccccc1/C=C/C=N/n1c(-c2ccc(Cl)cc2)n[nH]c1=S | – | inconclusive [falling, single point]
Cc1ccc(S(=O)(=O)NCCC(=O)N2CCN(c3cccc(Cl)c3)CC2)cc1C | – | inconclusive [falling, single point]
CC1CCCN(S(=O)(=O)c2ccc3c(c2)C(C)(C)C(=O)N3C)C1 (centres undefined) | inactive: -4.85% | –
CC1CCc2c(sc(NC(=O)c3ccc(Cn4cc([N+](=O)[O-])cn4)o3)c2C#N)C1 (centres undefined) | – | inconclusive [falling, single point]
Cc1cc2c(N)cccc2nn1 | – | active: 7.57 µM
O=C(COC(=O)C1CC2CCCC(C1)C2=O)NNC(=O)c1ccccc1Br (centres undefined) | – | inconclusive [falling, single point]
CC(=O)Nc1ccc(S(=O)(=O)N2CCN=C2SCc2cccnc2)cc1 | inactive: -3.08% | –

SMILES | activity, negative = inhibition | Potency
Oc1cccc(NC(=S)Nc2ccc(SC(F)F)cc2)c1 | – | inconclusive [activator, single point]
COc1ccc(C(=O)O)cc1S(=O)(=O)NC(C)(C)C | inactive: 1.39% | –
CCOC(=O)C1=C(C)c2ccccc2N(C(=O)OC)C1(C)C(=O)OCC (centres undefined) | – | inconclusive [activator, partial curve]
COc1cccc2nc3cc(C)c(C)cc3nc12 | – | inconclusive [falling, partial curve]
CN(c1ccccc1)S(=O)(=O)c1ccc(Cl)c(C(=O)OCC(=O)NCc2ccco2)c1 | – | inconclusive [falling, partial curve, poor fit]
COc1ccc(N/C=C2/CCCCC2=O)cc1 | inconclusive: 40.5% [activator] | –
CCOc1ccc(S(=O)(=O)N2CCN(C(=O)c3ccc(C)c(S(=O)(=O)N4CCOCC4)c3)CC2)cc1 | – | inconclusive [falling, single point]
O=C(NN1C(=O)CSC1=S)C(=O)NN1C(=O)CSC1=S | – | inconclusive [activator, full curve]
O=C(CSc1nnc(-c2cccs2)n1Cc1ccco1)Nc1ccc2c(c1)OCO2 | inactive: -6.58% | –
O=C(Nc1ccc(-c2nc3ccccc3s2)c(O)c1)C1=COCCO1 | – | inconclusive [falling, single point]
CC(=O)N1c2c(cc(Br)cc2S(=O)(=O)N2CCN(C(=O)c3ccco3)CC2)CC1C (centres undefined) | inactive: -1.33% | –
Oc1c(N=Nc2ccc(F)cc2)ccc2ccccc12 | inactive: -0.882% | –
O=C(CNC(=O)C1CCCCC1)Nc1ccc(F)c(Cl)c1 | – | inconclusive [falling, single point]
CC(=O)c1c(CC(=O)O)[nH]n(-c2nc3ccccc3s2)c1=O | – | inconclusive [falling, single point]
CN(Cc1ccco1)C(=O)C1CCCN(c2ncnc3c2nc2n3CCCCC2)C1 (centres undefined) | – | inconclusive [activator, single point]
COC(=O)C(CC(=O)c1ccc(Br)cc1)n1ccnc1 (centres undefined) | – | inconclusive [falling, partial curve]
CC1(C)CC(=O)C2=C(C1)NC1=C(C(=O)c3ccccc31)C2c1ccccc1 (centres undefined) | – | inconclusive [falling, single point]
O=C(Nc1cccc(Br)c1)c1ccccc1-c1ccccc1 | inactive: -4.93% | –
COc1ccc(C2(C(=O)c3ccccc3)C(=O)c3ccccc3C2=O)cc1 | inactive: -0.934% | –
Clc1ccc(OCc2nc3ccccc3[nH]2)cc1 | – | inconclusive [falling, single point]
O=C(Nc1cc(C(=O)N2CCCC2)ccc1N1CCCC1)c1ccccc1F | inactive: -6.71% | –
Cc1cc(C)c(S(=O)(=O)N2CCCCC2)c(C)c1N(C)S(=O)(=O)c1ccc(Cl)cc1 | – | inconclusive [falling, single point]
CC(C)CC(N=Cc1c(O)c2ccccc2oc1=O)C(=O)O (centres undefined) | – | inconclusive [activator, single point]
O=C(O)c1cc(-c2ccco2)nn1-c1ccc(Cl)cc1 | – | inconclusive [falling, partial curve]
COc1ccc(C(=O)NC(=O)CSc2nc3nc(C)cc(C)n3n2)cc1 | – | inconclusive [falling, single point]

SMILES | activity, negative = inhibition | Potency
C(=N\n1cnnc1)/c1cccn1-c1ccccc1 | inactive: -5.27% | –
Cc1nn(C)cc1/C=N\NC(=O)c1ccc(Cn2cc(Cl)cn2)cc1 | – | active: 26.9 µM
CCN(CC)C(=O)CSc1nnc(CNc2ccc(F)cc2)o1 | – | inconclusive [falling, single point]
O=C(C1CCN(c2ncnc3c2nc2n3CCCCC2)CC1)N1CCN(c2cccc(Cl)c2)CC1 | – | active: 9.53 µM
NNC(=O)c1ccc(Cn2cc(Br)cn2)cc1 | – | inconclusive [falling, single point]
COc1cc(CNc2ccc(N3CCOCC3)cc2)ccc1OCC(=O)NC(C)(C)C | inactive: 0.447% | –
O=C(O)c1cccc(-n2sc3ccccc3c2=O)c1 | – | active: 6.01 µM
COC(=O)/C(=C\c1ccc(O)cc1)c1nc2ccccc2[nH]1 | inactive: 0.412% | –
CC(=O)c1ccc(NC(=O)Cc2cccs2)cc1 | – | inconclusive [falling, single point]
COCCCNC(=S)NC(=O)c1ccc(C)cc1 | inactive: -7.84% | –
COc1ccc([C@]23Cc4cc(C#N)ccc4C(O2)c2c(c4ccc(OC)cc4oc2=O)O3)cc1 | inactive: -0.232% [at 11.5 µM] | –
O=C(Cn1cnc([N+](=O)[O-])c1)Nc1ccc(F)c(Cl)c1 | – | active: 23.9 µM
O=C(O)/C=C/C(=O)Nc1ccc(N2CCOCC2)nc1N1CCOCC1 | – | inconclusive [activator, full curve]
COc1ccc(C(=O)Nc2nnc(-c3ccco3)s2)cc1 | – | inconclusive [falling, single point]
C=CCn1c(SCC(=O)N2CC(=O)Nc3ccccc32)nc2scc(-c3ccccc3)c2c1=O | inactive: -0.264% | –
Cc1ccc(-c2cc(C(=O)NCc3ccco3)c3ccccc3n2)o1 | – | inconclusive [falling, single point]
N#CCC(=O)Nc1ccc(C(=O)OCC(=O)c2ccc3c(c2)OCCO3)cc1 | inactive: -0.469% | –
O=C(NC1CC1)C1=C[C@H](c2csc3ccccc23)C[C@H](OCCCCO)O1 | inactive: 1.83% | –
N#Cc1c(-c2ccco2)c2c([nH]c1=S)CCCC2 | – | inconclusive [falling, single point]
O=C(NCc1ccc(F)cc1)c1cc2ccccc2o1 | – | inconclusive [falling, single point]
Nc1ccc(C(=O)OCC(=O)NC2CCCc3ccccc32)cc1[N+](=O)[O-] (centres undefined) | – | inconclusive [falling, single point]
O=C(c1cn(Cc2ccccc2)nc1-c1cccnc1)N1CCN(Cc2ccccc2)CC1 | inactive: 1.1% | –
COC(=O)c1c(-c2ccccc2Cl)noc1-c1cnc(N)nc1C(F)(F)F | – | inconclusive [falling, single point]
CCOC(=O)c1c(C)[nH]c(C2=NNC(=NC3CC3)SC2)c1C | – | inconclusive [falling, partial curve]
